Measurements from PubChem BioAssay AID2675 (National Center for Advancing Translational Sciences (NCATS), 2010).
In all, about 280,000 compounds went through this assay and about 100 (0.036%) were called active. The shares of active, inactive and inconclusive entries below differ from those in the screen. Calls come from the whole dose curve; as a rule, active = well fitted inhibition curve with a large enough effect in the signal ratio, with a control signal flat (not every such curve was filed as active); inconclusive = small, poorly fitted or top-dose-only effect, or effect the other way, or a change in a side signal; inactive = no such curve, though single readings can be large or run the other way; the % refers to the signal ratio. A potency beside an inconclusive call is a rough fit, not a confirmed value. “Side channel” marks fits to a control or component signal instead of the main read-out.

molecular target: Muscleblind-like protein 1 (Homo sapiens) (UniProt Q9NR56); assay: qHTS Assay for Inhibitors of MBNL1-poly(CUG) RNA binding; conditions: TR-FRET MBNL1-His/biotin-(CUG)12 binding, 665/545 ratio; series mostly up to 57.5 µM
UniProt Q9NR56, sequence (Q9NR56 whole entry, looked up): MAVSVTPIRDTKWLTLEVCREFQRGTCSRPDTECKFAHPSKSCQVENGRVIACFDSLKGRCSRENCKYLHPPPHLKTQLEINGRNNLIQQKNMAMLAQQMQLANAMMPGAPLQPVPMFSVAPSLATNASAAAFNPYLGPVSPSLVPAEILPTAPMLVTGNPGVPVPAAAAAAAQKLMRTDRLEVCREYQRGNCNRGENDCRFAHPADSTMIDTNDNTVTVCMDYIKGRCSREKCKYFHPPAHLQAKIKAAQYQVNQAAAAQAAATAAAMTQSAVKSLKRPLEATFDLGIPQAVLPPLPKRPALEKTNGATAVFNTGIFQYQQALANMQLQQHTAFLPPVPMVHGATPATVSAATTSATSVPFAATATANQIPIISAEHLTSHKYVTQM
In short: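 His-tagged MBNL1 binding to biotinylated (CUG)12 RNA was measured by TR-FRET using terbium anti-His antibody (0.055 ng/ul final) and streptavidin-XL665 (5 nM final). Compounds were titrated 92 nM to 58 uM; 60 min at room temperature.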
Potency is the fitted concentration of half-maximal effect; tags give direction and shape of the fitted curve or compound fluorescence and quenching.

**Q.** `COc1cn(-c2ccccc2)nc1C(=O)Nc1ccc(C)cc1` was tested. Which Potency did it give?
**A.** Its Potency is inconclusive: 2.51 µM [quencher, side channel, full curve].

**Q.** With `COc1cccc(/C=N/NC(=O)CNC(=O)CCc2ccccc2)c1O` as the compound, how does the Potency read?
**A.** Its Potency is “inactive”.

**Q.** With `Cn1c2c(c(=O)[nH]c1=O)C(c1cccc(O)c1)C1=C(N2)c2ccccc2C1=O` (centres undefined) as the compound, how does the Potency read?
**A.** Its Potency is inconclusive: 7.08 µM [quencher, side channel, partial curve].

**Q.** `CCN1C(=O)c2cccc3c(S(=O)(=O)Nc4nc(C)cs4)ccc1c23` was tested. Which Potency did it give?
**A.** Its Potency is inconclusive: 31.6 µM [quencher, side channel, single point].

**Q.** Which Potency does the source give for `COc1ccc(/C=C/C(=O)O/N=C(\N)c2ccccc2)cc1OC` here?
**A.** Its Potency is inconclusive: 28.2 µM [activator, single point].

**Q.** `Cc1ccc(Sc2ccc(CN3CCCC3)cc2[N+](=O)[O-])cc1` was tested. Which Potency did it give?
**A.** Its Potency is inconclusive: 14.1 µM [quencher, partial curve].

**Q.** How did the Potency turn out when `COc1ccc(CC(=O)Nc2oc(-c3ccccc3)c(-c3ccccc3)c2C#N)cc1OC` was run?
**A.** Its Potency is “inactive”.

**Q.** `O=C(Cc1ccccc1)N1CCc2ccccc21` was tested. Which Potency did it give?
**A.** The Potency was “inactive”.

**Q.** Which Potency does the source give for `Cc1cc2c(n1-c1ccc(C(=O)O)cc1)CCCCC2` here?
**A.** The Potency was “inactive”.

**Q.** How did the Potency turn out when `C=CCc1c(C)nc(-c2ccccc2)nc1N/N=C/c1ccncc1` was run?
**A.** Its Potency is “inactive”.

**Q.** Which Potency does the source give for `Cc1nn(C(=O)c2cccc([N+](=O)[O-])c2)c(C)c1Sc1ccccc1` here?
**A.** The Potency was inconclusive: 20 µM [quencher, side channel, single point].

**Q.** For `NC(=O)c1cc(S(=O)(=O)N2CCc3ccccc3C2)cs1`, which Potency is on record?
**A.** Its Potency is “inactive”.

**Q.** For `N#Cc1ccc(OS(=O)(=O)c2ccc(-c3ccon3)s2)cc1`, which Potency is on record?
**A.** The Potency was inconclusive: 17.8 µM [quencher, side channel, partial curve].

**Q.** Which Potency does the source give for `COc1ccc(NC(=O)C2CCCN(C(=O)Nc3ccc(OC)cc3)C2)cc1` (centres undefined) here?
**A.** Its Potency is “inactive”.

**Q.** `COc1ccc(NC(=S)Nc2cccc([N+](=O)[O-])c2)cc1` was tested. Which Potency did it give?
**A.** Its Potency is inconclusive: 20 µM [quencher, side channel, single point].

**Q.** For `Cc1cccc[n+]1CC(=O)Nc1ccc([N+](=O)[O-])cc1`, which Potency is on record?
**A.** The Potency was inconclusive: 10 µM [quencher, side channel, partial curve].

**Q.** Which Potency does the source give for `COc1cc(NS(C)(=O)=O)ccc1Nc1c2ccccc2nc2ccccc12` here?
**A.** Its Potency is inconclusive: 12.6 µM [quencher, side channel, partial curve].

**Q.** Which Potency does the source give for `CC(=O)Nc1ccc(C(=O)N/N=C/c2cc(Br)cc(Br)c2O)cc1` here?
**A.** Its Potency is “inactive”.

**Q.** With `CCOC(=O)c1c(NC(=O)c2c(C(=O)O)cccc2[N+](=O)[O-])sc(C)c1C` as the compound, how does the Potency read?
**A.** Its Potency is inconclusive: 12.6 µM [quencher, side channel, partial curve].
